Measurements from paper PMC4336329 (PLoS ONE, 2015).
About 14,000 (4.5%) of roughly 310,000 compounds showed an effect of 50% or more. The effect is printed as a negative number. Some of the results follow.

The molecules below were run against human ether-à-go-go-related gene (hERG) potassium channel (human, UniProt Q12809) (assay: primary screen, population patch clamp on CHO cells stably expressing hERG).
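Note: peak tail current of the secondary pulse compared with the same well before compound.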

human ether-à-go-go-related gene (hERG) potassium channel, sequence (Q12809 whole entry, looked up): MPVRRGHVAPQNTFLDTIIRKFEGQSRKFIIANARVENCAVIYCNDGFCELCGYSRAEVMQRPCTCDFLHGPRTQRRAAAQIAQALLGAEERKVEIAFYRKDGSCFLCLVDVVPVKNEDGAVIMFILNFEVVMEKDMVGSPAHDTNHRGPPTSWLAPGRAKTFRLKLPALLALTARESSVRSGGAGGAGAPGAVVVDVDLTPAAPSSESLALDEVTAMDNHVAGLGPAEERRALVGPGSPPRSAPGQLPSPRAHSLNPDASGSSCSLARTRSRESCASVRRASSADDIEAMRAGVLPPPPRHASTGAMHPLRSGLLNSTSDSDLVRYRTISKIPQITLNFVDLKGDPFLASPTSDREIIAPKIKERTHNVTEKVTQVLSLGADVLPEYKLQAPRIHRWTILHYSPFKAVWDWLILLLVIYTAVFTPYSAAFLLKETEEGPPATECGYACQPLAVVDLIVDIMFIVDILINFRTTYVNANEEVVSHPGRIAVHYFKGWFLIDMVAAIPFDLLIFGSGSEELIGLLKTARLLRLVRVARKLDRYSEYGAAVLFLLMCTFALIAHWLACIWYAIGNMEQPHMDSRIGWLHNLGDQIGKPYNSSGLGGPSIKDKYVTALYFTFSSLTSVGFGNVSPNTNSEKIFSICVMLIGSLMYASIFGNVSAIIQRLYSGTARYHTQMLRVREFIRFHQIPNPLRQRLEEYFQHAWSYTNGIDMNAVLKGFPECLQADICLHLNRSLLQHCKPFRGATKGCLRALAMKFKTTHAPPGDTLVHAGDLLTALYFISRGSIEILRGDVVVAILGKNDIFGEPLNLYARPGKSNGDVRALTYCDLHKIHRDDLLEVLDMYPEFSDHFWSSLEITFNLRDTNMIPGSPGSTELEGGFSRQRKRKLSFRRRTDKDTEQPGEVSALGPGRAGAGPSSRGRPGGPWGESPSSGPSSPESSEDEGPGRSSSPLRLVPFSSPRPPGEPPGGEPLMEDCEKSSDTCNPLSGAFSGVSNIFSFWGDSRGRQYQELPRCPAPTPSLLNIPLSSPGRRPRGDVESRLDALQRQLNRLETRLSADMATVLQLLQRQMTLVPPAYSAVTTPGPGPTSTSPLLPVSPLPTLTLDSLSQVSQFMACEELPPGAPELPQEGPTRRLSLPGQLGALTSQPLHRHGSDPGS

Structure (SMILES)	hERG current change (%, negative = inhibition) at 10uM [%]
O=C(COC(=O)CCC(=O)c1cccs1)NC1CC1	25.4
Cc1nnc(NC(=O)CSc2nnc(NC(=O)C(C)(C)C)s2)s1	36.6
CC1=NN(c2ccccc2)C(=O)/C1=C\c1ccc(Oc2ccc([N+](=O)[O-])cc2[N+](=O)[O-])cc1	12.7
CC(=O)N(NC(=O)c1ccc(C)cc1)C1CC(=O)N(c2ccccc2Cl)C1=O (stereo not shown)	-10.3
Cc1ccc(-c2cc(C(=O)NCc3ccccn3)c3ccccc3n2)cc1C	-11
O=C(Nc1ccccc1C(=O)O)c1ccc(Br)o1	18.2
Cc1cc(=O)n(-c2ccc3ccccc3n2)[nH]1	5.66
Cc1ccc(S(=O)(=O)CCC(=O)Nc2ccc(S(=O)(=O)N(C)C)cc2)cc1	7.9
CCCNC(=O)NCCc1ccncc1	7.09
O=S(=O)(NC1CCCCC1)c1ccc(-c2csnn2)s1	-4.29
O=C(Nc1ccc(N2CCOCC2)cc1)C1CCN(S(=O)(=O)Cc2ccccc2)CC1	19.2
CCOC(=O)c1ccccc1NC(=O)COC(=O)CN1C(=O)NC2(CCCC2)C1=O	-26.6
CC(=O)OC(COc1ccccc1)Cn1cnc2ccccc21 (stereo not shown)	-6.26
CCN(C(=O)CCc1nnc2ccc(N3CCC4(CC3)OCCO4)nn12)c1ccccc1	10.3
Clc1ccc(CCC(Cn2ccnc2)Sc2c(Cl)cccc2Cl)cc1.O=[N+]([O-])O (stereo not shown)	-9.6
Cc1ccc(C(=O)OCC(=O)NC2CCCCC2)cc1S(=O)(=O)N1CCCCC1	8.86
N/C(=N\OC(=O)COc1ccccc1)c1ccc(Cl)cc1	2.9
COc1cc(N)c(Cc2nccc3cc(OC)c(OC)cc23)cc1OC	-4.16
O=C(Nc1cccc([N+](=O)[O-])c1)c1ccc2c(c1)OCO2	2.11
CCCNC(=O)NCCc1c(C)[nH]c2ccccc12	1.52
Cc1cc(C)c2cc3c(N)c(C(=O)N4CCc5ccccc5C4)sc3nc2c1	14.9
O=c1[nH]c(N2CCN(c3ccccc3)CC2)nc2c1CCCC2	2.28
COc1ccc(N(Cc2cc3ccccc3[nH]c2=O)S(=O)(=O)c2ccccc2)cc1	2.91
CCN(CC)c1ccc(-c2nnc(SCC(=O)N(CCOC)c3c(N)n(CC(C)C)c(=O)[nH]c3=O)o2)cc1	-1.45
CC(C)CN1C(=O)C(=O)N(CC(=O)N(C)CC(=O)Nc2ccc(F)cc2)C1=O	-5.4
COc1ccc(CCN2CN(S(=O)(=O)c3ccccc3)c3nc4ccccc4nc32)cc1	-30.9
CCC1=C(OC(=O)N(CC)CC)N2C(=O)OC(=NCCOC)[C@]2(Cc2ccccc2)[C@H]2C1=CC[C@H]1C(=O)N(C)C(=O)[C@H]12	-9.54
C/C(=N\NC(=O)c1cccnc1)c1c(O)cc(C)oc1=O	-1.71

Structure (SMILES)	hERG current change (%, negative = inhibition) at 10uM [%]
COc1ccccc1CN1CCC(CNS(=O)(=O)c2cc(-c3cc(C)no3)ccc2OC)CC1	-58.2
COc1ccccc1C(=O)NC(=O)COC(=O)Cn1[nH]c(=O)c2ccccc2c1=O	9.29
CS(=O)(=O)N(CC(=O)N1CCCC1)c1ccc(Cl)cc1Cl	9.71
CCOC(=O)C1=C(C)OC(N)=C(C(=O)OCC)C1c1ccncc1 (stereo not shown)	-14.9
Cc1nc(CCNC(=O)CC2C(=O)NCCN2Cc2ccccc2F)sc1C (stereo not shown)	17.9
CN(C(=O)c1ccc(OC2CCN(CCc3ccccc3)CC2)cc1)C1CCOCC1	-9.93
O=C(CC(NC(=O)OCc1ccccc1)C(=O)O)OCc1ccccc1 (stereo not shown)	4.67
Cc1ccccc1OCC(O)Cn1c2ccccc2c2ccccc21 (stereo not shown)	2.67
C(=N\Nc1nc(N2CCOCC2)nc(N2CCOCC2)n1)/c1ccco1	30.2
CC(C)Cn1c(N)c(C(=O)COC(=O)c2ccc(O)cc2)c(=O)n(C)c1=O	-10.6
CN1CCN(c2cn[nH]c(=O)c2Cl)CC1	15.4
COc1ccc(NC(=O)NCc2ccccn2)cc1	8.78
O=S(=O)(c1ccc(Cl)cc1)N1CCn2c1nc1ccccc12	-11.3
CSc1nc(S(=O)(=O)c2ccc(C)cc2)c(Cl)s1	-3
CC1CCN(CCCCOc2ccccc2F)CC1.O=C(O)C(=O)O	-13.3
CC1=C(C(=O)c2ccccc2)C(c2ccc(OC(F)F)cc2)NC(=S)N1 (stereo not shown)	-17.1
Cc1ccc(C)c(N2CCN(S(=O)(=O)c3ccc4c(c3)NC(=O)CS4)CC2)c1	1.02
CCN(C(=O)COC(=O)c1cc(-c2ccccc2)nn1-c1ccccc1)C1CCS(=O)(=O)C1 (stereo not shown)	-12.8
CCOc1ccc(NC(=O)N2CCC(n3c(=O)[nH]c4ccccc43)CC2)cc1	-16.9
O=C(CSc1nnc(CN2CCCCCC2=O)n1-c1ccccn1)NCC(F)(F)F	-4.29
CC[N+]1(CC)CC2=Cc3c(ccc4ccccc34)CC2C1.[Br-] (stereo not shown)	-15.1
CCCc1ccc(NC(=O)C2CCCN(c3cnccn3)C2)cc1 (stereo not shown)	-32
COc1ccc(C2=NOC(C(=O)NCC(C)C)C2)cc1 (stereo not shown)	-5.43
CCN(CC(=O)NC1CCS(=O)(=O)C1)S(=O)(=O)c1ccc(C)c(C)c1 (stereo not shown)	2.78
CC(C)(C)n1nnnc1C(c1ccc2ncccc2c1)N1CCC(O)CC1 (stereo not shown)	12.4
CCSc1nnc(NC(=O)CSc2sc3c(O)cc(=O)[nH]c3c2C#N)s1	6.94
CSc1nc2ccc(S(=O)(=O)N3CCc4ccccc43)cc2s1	-13.4
